The results in this text go back to paper PMC4336329 (PLoS ONE, 2015).

The whole screen tested about 310,000 compounds, of which about 14,000 (4.5%) showed an effect of 50% or more. The effect is printed as a negative number. This is one part of the list.
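Note: peak tail current of the secondary pulse compared with the same well before compound.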

Sequence of human ether-à-go-go-related gene (hERG) potassium channel (Q12809 whole entry, looked up): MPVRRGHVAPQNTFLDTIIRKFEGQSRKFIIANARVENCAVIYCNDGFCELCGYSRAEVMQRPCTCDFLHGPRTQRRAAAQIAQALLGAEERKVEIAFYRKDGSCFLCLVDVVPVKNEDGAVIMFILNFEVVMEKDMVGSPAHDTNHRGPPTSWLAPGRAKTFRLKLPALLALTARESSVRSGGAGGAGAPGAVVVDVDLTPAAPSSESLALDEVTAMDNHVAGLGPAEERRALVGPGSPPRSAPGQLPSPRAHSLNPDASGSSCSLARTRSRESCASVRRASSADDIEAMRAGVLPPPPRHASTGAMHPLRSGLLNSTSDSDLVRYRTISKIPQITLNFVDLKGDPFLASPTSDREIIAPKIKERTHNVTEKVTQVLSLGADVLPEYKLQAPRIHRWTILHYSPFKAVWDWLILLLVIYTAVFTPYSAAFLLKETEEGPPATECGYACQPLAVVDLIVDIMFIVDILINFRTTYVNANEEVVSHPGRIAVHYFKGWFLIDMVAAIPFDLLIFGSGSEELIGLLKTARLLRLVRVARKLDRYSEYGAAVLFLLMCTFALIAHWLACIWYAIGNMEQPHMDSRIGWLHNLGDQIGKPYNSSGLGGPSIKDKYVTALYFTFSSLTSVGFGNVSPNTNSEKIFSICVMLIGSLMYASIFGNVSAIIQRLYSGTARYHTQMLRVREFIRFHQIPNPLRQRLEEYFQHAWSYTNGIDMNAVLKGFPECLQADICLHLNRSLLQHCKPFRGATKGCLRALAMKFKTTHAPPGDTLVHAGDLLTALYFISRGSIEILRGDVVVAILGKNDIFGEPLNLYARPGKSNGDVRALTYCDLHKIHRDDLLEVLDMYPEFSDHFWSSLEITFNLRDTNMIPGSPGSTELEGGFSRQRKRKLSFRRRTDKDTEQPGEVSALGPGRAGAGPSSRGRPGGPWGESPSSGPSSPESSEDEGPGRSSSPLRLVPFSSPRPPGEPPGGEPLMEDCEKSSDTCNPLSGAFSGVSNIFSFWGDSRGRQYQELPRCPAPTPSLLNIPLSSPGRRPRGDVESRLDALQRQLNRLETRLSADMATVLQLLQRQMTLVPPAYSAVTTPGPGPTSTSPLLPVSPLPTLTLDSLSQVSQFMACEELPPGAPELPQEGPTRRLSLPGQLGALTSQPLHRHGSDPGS

This assay addresses human ether-à-go-go-related gene (hERG) potassium channel (human, UniProt Q12809). Briefly: primary screen, population patch clamp on CHO cells stably expressing hERG.
Take `Cc1ccc2nc(/C(C#N)=C\c3ccc(N4CCCCC4)c([N+](=O)[O-])c3)[nH]c2c1`: the “hERG current change (%, negative = inhibition) at 10uM” value is recorded as 4.79%.

With `Fc1ccc(NC(=S)NNc2ncc(C(F)(F)F)cc2Cl)c(F)c1`, the “hERG current change (%, negative = inhibition) at 10uM” value is given as -1.49%.

Take `CCCCCOC(=O)C(C)c1c(C)[nH]c(=S)[nH]c1=O` (stereo not shown): the “hERG current change (%, negative = inhibition) at 10uM” value is given as 5.91%.

Consider `O=C(Nc1nnc(Cc2ccc([N+](=O)[O-])cc2)s1)c1ccc2c(c1)OCO2`, for which the “hERG current change (%, negative = inhibition) at 10uM” value was 3.6%.

As to `CN(C)C(=O)c1cnc(-c2ccccc2)nc1-c1ccccc1`, the “hERG current change (%, negative = inhibition) at 10uM” value was determined as 11.5%.

Turning to `Cc1cc(C(=O)Cn2nc(C(=O)O)c3ccccc3c2=O)c(C)n1C1CC1`, the “hERG current change (%, negative = inhibition) at 10uM” value is on record as -13.6%.

As to `CC(NC(=O)c1cccc(Cl)c1)C1CC2CCC1C2` (stereo not shown), the “hERG current change (%, negative = inhibition) at 10uM” value was -0.901%.

In the case of `CC(=O)Nc1ccc(C2NC(=S)N(c3ccccc3C(F)(F)F)C(C)=C2C(=O)N2CCOCC2)cc1` (stereo not shown), the “hERG current change (%, negative = inhibition) at 10uM” value amounted to 12.9%.

Turning to `Cc1cc(Cl)c(S(=O)(=O)Nc2ccc3c(c2)OCCO3)cc1OCC(N)=O`, the “hERG current change (%, negative = inhibition) at 10uM” value is given as -3.59%.

On to `CCOc1ccc(C2N(c3ccc(F)cc3)C(=O)C3CCCN32)cc1OC` (stereo not shown), for which the “hERG current change (%, negative = inhibition) at 10uM” value was -10.8%.

Take `O=C1CCC(C(=O)N2CCCCO2)CN1Cc1ccc(Cl)cc1` (stereo not shown): the “hERG current change (%, negative = inhibition) at 10uM” value is on record as -2.61%.

Turning to `CCOC(=O)c1ccc(NC2c3ccccc3C(=O)N2c2ccccn2)cc1` (stereo not shown), the “hERG current change (%, negative = inhibition) at 10uM” value was found to be 9.93%.

Regarding `CCOC(=O)C1=C(N)c2ccccc2CC1C1CCCC1` (stereo not shown), the “hERG current change (%, negative = inhibition) at 10uM” value was determined as 15.9%.

Regarding `Cn1nnc(NC(=S)NC(=O)c2cccc3c(Cl)cccc23)n1`, the “hERG current change (%, negative = inhibition) at 10uM” value is recorded as 26.8%.

For the molecule `Cc1ccc(-c2cc(C(=O)Nc3cc(C)on3)c3ccccc3n2)c(C)c1`, the “hERG current change (%, negative = inhibition) at 10uM” value came out at 5.46%.

On to `O=C(c1ccccc1)c1nc[nH]c1C(=O)Nc1ccccc1`, for which the “hERG current change (%, negative = inhibition) at 10uM” value was 0.367%.

Regarding `Cc1cccc(N2CCN(C(=O)c3cc4n(n3)C(C(F)(F)F)CC(c3ccco3)N4)CC2)c1C` (stereo not shown), the “hERG current change (%, negative = inhibition) at 10uM” value was determined as 25.4%.

Regarding `Cc1ccc(Sc2cc(N3CCOCC3)nc(-c3ccccc3)n2)cc1`, the “hERG current change (%, negative = inhibition) at 10uM” value is -7.23%.

Take `Cl.NC(N)=NC(N)=NCCc1ccccc1`: the “hERG current change (%, negative = inhibition) at 10uM” value is 17%.

With `CCCN(CC1CCCO1)C(=O)CCc1nnc(-c2cc(C)on2)o1` (stereo not shown), the “hERG current change (%, negative = inhibition) at 10uM” value came out at 15.6%.

For `CCCNC(=O)c1c(N)n(-c2cccc(OC)c2)c2nc3ccccc3nc12`, the “hERG current change (%, negative = inhibition) at 10uM” value is given as -5.21%.

On to `CCOC(=O)CSc1nnc(-c2ccc3ncccc3c2)n1C`, for which the “hERG current change (%, negative = inhibition) at 10uM” value is -7.33%.

As for `Cc1sc2nc(-c3ccccc3)oc(=O)c2c1C`, the “hERG current change (%, negative = inhibition) at 10uM” value worked out at 9.1%.

`C=CCn1c(C(CCC(C)C)CC(C)(C)O)n[nH]c1=S` (stereo not shown): the “hERG current change (%, negative = inhibition) at 10uM” value is 21.2%.

Consider `COc1ccc(CCNC(=O)c2ccccc2C(=O)NCCc2ccc(OC)cc2)cc1`, for which the “hERG current change (%, negative = inhibition) at 10uM” value is -12%.
